# ± gives the standard deviation of the averaged measurements. Over roughly 33,000 sequences, “E-score (dimensionless, -0.5 to 0.5)” has its median near -0.046; the highest 2% begin near 0.36. Some of the results follow.
# System: T1, SpTbr T-box DNA-binding domain (GST fusion)
# T1 sequence: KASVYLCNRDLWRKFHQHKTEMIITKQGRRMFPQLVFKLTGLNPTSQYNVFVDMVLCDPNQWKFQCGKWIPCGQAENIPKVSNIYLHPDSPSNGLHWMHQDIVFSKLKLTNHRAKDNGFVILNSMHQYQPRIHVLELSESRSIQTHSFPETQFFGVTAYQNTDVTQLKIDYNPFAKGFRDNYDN
# Assay: PBM E-score of 8-mer (E-score (dimensionless, -0.5 to 0.5)); Tbr is Tbrain of the sea star Patiria miniata (Pm) or the sea urchin Strongylocentrotus purpuratus (Sp); higher = stronger binding preference; most listed sequences are background and not binding sites
# Conditions: the construct has about 5 more residues each side
# Procedure: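 Universal protein-binding microarray (Agilent AMADID 016060, 60-bp probes with a 35-bp variable region) incubated with 200 nM GST-fused Strongylocentrotus purpuratus Tbr T-box DNA-binding domain (residues 362-554) in PBS pH 7.5. Scored for every ungapped 8-mer (given with its reverse complement) as E-score (range -0.5 to 0.5; >0.45 counts as bound) and Z-score of median probe intensity. Two replicate arrays (datasets 1 and 2).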
# 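Further: protein at 200 nM in PBS on universal double-stranded arrays.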
row,Sequence,PBM E-score of 8-mer
1,CCAAAGCC,-0.197 ± 0.079
2,ACACAGTC,0.152 ± 0.069
3,CCGTCTAG,-0.161 ± 0.097
4,CTGATGCC,-0.187 ± 0.043
5,CTTTCTCC,-0.138 ± 0.0068
6,CTAATCAC,0.139 ± 0.0056
7,ACTACATA,-0.231 ± 0.013
8,GCCCTAAC,-0.0612 ± 0.02
9,AAGGACTG,-0.0537 ± 0.072
10,GTTCCCGA,-0.0903 ± 0.0046
11,CTCATGGC,-0.0387 ± 0.0099
12,TAGCTATA,-0.17 ± 0.009
13,CTCACCAA,0.133 ± 0.059
14,ACGTGCGA,0.4353 ± 0.0022
15,ATGGAATC,-0.125 ± 0.063
16,CAGCACCC,0.242 ± 0.024
17,GCTGGCAC,0.202 ± 0.02
18,ATTTGTCC,0.0415 ± 0.006
19,ATCAAGAG,-0.238 ± 0.078
20,ATTGGACC,-0.17 ± 0.016
21,ATGAATGG,-0.114 ± 0.0039
22,CGCAATTC,0.169 ± 0.0051

row,Sequence,PBM E-score of 8-mer
1,ACGCGTAA,0.244 ± 0.033
2,AGGCTCAA,-0.0724 ± 0.025
3,ACCCGGAT,0.00386 ± 0.0088
4,CGGACCAG,-0.216 ± 0.011
5,ACACGGCG,0.177 ± 0.07
6,CAAAGCGC,-0.0211 ± 0.062
7,ATCCCGCC,-0.0677 ± 0.065
8,ACCACAGG,0.0755 ± 0.041
9,GGCTATAA,-0.0685 ± 0.0091
10,AGATAGAT,-0.223 ± 0.013
11,ATCTCACG,0.29 ± 0.012
12,ATCCTTAG,-0.379 ± 0.063
13,AACCTCAT,-0.0711 ± 0.02
14,GCAACAGA,-0.0993 ± 0.047
15,GTATACGA,-0.115 ± 0.033
16,AATGAACA,-0.0898 ± 0.025
17,CAAAAGGC,0.0691 ± 0.048
18,TTAAACAA,0.0248 ± 0.054
19,CATCCGGG,-0.173 ± 0.013
20,CATTTTCC,-0.0437 ± 0.07
21,GGCACGCC,0.149 ± 0.035
22,ATGTATAC,-0.102 ± 0.018

row,Sequence,PBM E-score of 8-mer
1,CATTGATC,-0.151 ± 0.064
2,GAACTTTA,-0.043 ± 0.015
3,CGGGCCTA,-0.265 ± 0.018
4,GACGAGCC,-0.0731 ± 0.024
5,CGGCCACA,0.131 ± 0.1
6,GCATGCTA,0.00793 ± 0.094
7,ACGACCCA,-0.00396 ± 0.0098
8,ACATCTCT,0.0448 ± 0.034
9,AACATTTG,-0.0214 ± 0.0034
10,CTAGCTTC,-0.0765 ± 0.0019
11,AGTCGTCA,0.27463 ± 0.00015
12,GGCAAAAA,0.0671 ± 0.028
13,AAAACGCG,0.0985 ± 0.0096
14,TGGCCAAA,-0.096 ± 0.031
15,ACCACCTC,0.343 ± 0.046
16,CCCTACAA,-0.069 ± 0.016
17,GGAGGGTA,-0.0485 ± 0.045
18,CGCCAGTA,0.0702 ± 0.01
19,GATCGTAC,-0.052 ± 0.014
20,AAGGTCCG,-0.181 ± 0.018
21,CAGTTTCC,-0.0764 ± 0.021
22,GATTCGCC,-0.0461 ± 0.029

row,Sequence,PBM E-score of 8-mer
1,CGGCATCC,-0.155 ± 0.023
2,AAGCAGGT,0.102 ± 0.0054
3,ACCGGAGC,-0.182 ± 0.055
4,CGAATACG,0.0203 ± 0.00074
5,CAACCTCG,0.0554 ± 0.11
6,CTGTAAAC,0.132 ± 0.0059
7,TAGAGGGA,-0.0885 ± 0.015
8,CGTATACC,-0.0262 ± 0.079
9,CTTCCCTC,-0.193 ± 0.094
10,ACCTCCCT,0.00833 ± 0.034
11,ACGCCACA,0.222 ± 0.036
12,CCAATCTA,-0.187 ± 0.03
13,AATCCCGC,-0.146 ± 0.015
14,AGTAAGTC,-0.229 ± 0.019
15,GCCTGACA,0.177 ± 0.022
16,CTATCTAC,-0.0711 ± 0.021
17,TCTGTGCA,-0.112 ± 0.0015
18,TACCAACA,0.129 ± 0.0035
19,TGGAGAAA,-0.013 ± 0.077
20,CCTCAGCC,-0.0938 ± 0.007

# From the supplement of paper PMC4166925
